Results published in PubChem BioAssay AID1508623 (National Center for Advancing Translational Sciences (NCATS), 2021).
Hit rate of the full screen: of about 48,000 compounds, about 450 (0.94%) were called active. Roughly 19% stayed inconclusive and do not appear here. Calls come from the whole dose curve; as a rule, active = well fitted inhibition curve with a large enough effect; inconclusive = small, poorly fitted or top-dose-only effect; inactive = no such curve, though single readings can be large or run the other way. This is one part of the list.

Assay: Primary qHTS for Identification of Small Molecule Inhibitors of Huntingtin Promoter Activity; note: nearly all actives have a fitted effect of over 50% in size
Details: HEK293 HTT promoter firefly luciferase reporter (activity 0% = vehicle and -100% = no light), 24 h; series mostly up to 57.5 µM; activity change, negative = inhibition: at the top concentration
Method in brief: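 Luminescence was read after Dual-Glo reagent and a 10 min room-temperature incubation. Values were normalized to vehicle (0% activity) and zero RLU (-100% activity). Reporter HEK293 cells had been exposed to compounds (up to 57.5 uM final) for 24 h.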
Potency is the fitted concentration of half-maximal effect.

Activity change, negative = inhibition, inactive:
Cc1ccc(-n2nnnc2CNC(=O)C(C)C)cc1C 1.74%
CCSc1nnc2c(n1)OC(CC)N(C(C)=O)c1ccccc1-2 (stereo not given) -13.7%
O=C(NCCC1=CCCCC1)c1ccc2c(c1)ncn2-c1ccc(F)c(F)c1 14.3%
O=c1c2c(-c3ccc(Cl)cc3)ccnc2[nH]n1-c1ccccc1 -3.94%
CCN(Cc1ccccc1)Cc1c(O)ccc2c(=O)c(-c3ccccc3Cl)c(C(F)(F)F)oc12 -10.5%
COc1ccc(OC)c(C2c3c(oc4ccc(C)cc4c3=O)C(=O)N2CCCN(C)C)c1 (stereo not given) -12.5%
O=C(NCc1cccc(F)c1)c1cccc(NC(=O)c2nsc3ccccc23)c1 20.4%
C=Cc1c(C)c2cc3[nH]c(cc4nc(cc5nc(cc1[nH]2)C(C)=C5CCC(=O)O)C(CCC(=O)O)=C4C)c(C)c3C=C 1.19%
CC(=O)Nc1cccc(NC(=O)c2c(-c3ccccc3)c(-c3ccccc3)nn(C)c2=O)c1 -0.399%
CCCN(CCC)C(=O)CSc1nc2sc3c(c2c(=O)n1-c1ccccc1)CCN(C(C)=O)C3 -3.11%
CCc1ccc(-n2nc3ccc(NC(=O)c4ccc(C#N)cc4F)cc3n2)cc1 -4.79%
Cc1cccc(-n2ncc3c(NC4CCCC4)ncnc32)c1 3.86%
COc1cccc(CNC(=O)C2CCN(c3nnc(-n4c(C)ccc4C)s3)CC2)c1 -15.3%
CCOc1ccc(-c2nnc(SCC(=O)NCc3ccc(C)cc3)nc2-c2ccc(OCC)cc2)cc1 2.55%
CCC(CC)C(=O)Nc1cccc(-c2nc3ccccc3s2)c1 -13.6%
Fc1ccc(-c2cn3cc(Cc4ccc(Cl)cc4)sc3n2)cc1 3.12%
CCC(C(=O)Nc1cc(-c2nc3cccnc3s2)ccc1C)c1ccccc1 (stereo not given) 22.2%
CCOc1ccccc1C1CC(=O)Oc2c1c(=O)n(C)c1ccccc21 (stereo not given) -2.3%
Cc1ccc(Cl)cc1NC(=O)Cn1c(=O)c2ccccc2n2nncc12 -10.5%
Cc1ccccc1-c1nc2cc(NC(=O)COc3ccc(F)cc3)ccc2o1 77.2%
CC1=C(C(=O)Nc2ccc(C)cc2C)C(c2ccccc2)n2ncc(C(=O)Nc3ccccc3)c2N1 (stereo not given) -32.8%
CCOC(=O)c1c(-c2ccccc2)csc1NC(=O)c1cc(-c2ccc(Cl)cc2)on1 -3.59%
COC(=O)c1ccc2c(=O)n(CCCCCC(=O)N3CCN(c4ccc(OC)cc4)CC3)c(=O)[nH]c2c1 -6.56%
CCOC(=O)c1sc(NC(=O)c2cc(-c3ccc(F)cc3)on2)c(C(=O)OCC)c1C -5.19%
Cc1c(CC(=O)NCCc2ccc(Cl)cc2)c(=O)oc2c(C)c3occ(C(C)(C)C)c3cc12 -3.25%
Cc1ccc(NC(=O)C2CCCN(S(=O)(=O)c3cccc4cccnc34)C2)c(C)c1 (stereo not given) -20.8%
CCS(=O)(=O)c1nc(S(=O)(=O)c2ccc(Cl)cc2)c(NCc2ccccc2Cl)s1 -17.3%
COC(=O)C1=C(C)NC(C)=C(C(=O)OCCN2CCN(C(c3ccccc3)c3ccccc3)CC2)C1c1cccc([N+](=O)[O-])c1 (stereo not given) -6.18%
O=c1c(N2CCc3ccccc3C2)csc2ccccc12 12.9%
O=C(NCCc1ccccc1)c1ccc2c(c1)N(Cc1ccccc1F)C(=O)c1ccccc1S2=O (stereo not given) 11.1%
Cc1ccc(-c2ccc(=O)n(CC(=O)Nc3cccc(C#N)c3)n2)cc1 -6.08%
CCOc1ccc(-c2nc3c(c(SCC(=O)N4CCCCC4)n2)Cc2ccccc2O3)cc1 -8.48%
CNC(=O)C1CCC(Cn2c(=O)c3sccc3n(CC(=O)NCc3ccc(F)cc3)c2=O)CC1 (stereo not given) -15.5%
COc1ccc(NC(=O)c2ccc3c(=O)n4nc(Nc5cccc(Cl)c5C)sc4nc3c2)cc1 -1.17%
CC1=C(C(=O)Nc2cccnc2)C(c2ccccc2)n2nc(-c3ccc(O)cc3)nc2N1 (stereo not given) 4.1%
Cc1ccc(C2CCN(C(=O)c3cnn(-c4ccc(C)cc4)c3C3CCN(C(=O)OC(C)(C)C)CC3)C2)cc1 (stereo not given) 25.3%
CCCCCCCCCCCCCCCCN -1.57%
COc1cccc(NC(=O)CC(C)S(=O)(=O)c2ccc3c(c2)NC(=O)CO3)c1 (stereo not given) 5.09%
Cc1c(Cl)cccc1NC(=O)c1ncn(-c2ccccc2)n1 40.6%
COc1ccc(CCNC(=O)CSc2nc(-c3ccc(F)cc3)cc(C(F)(F)F)n2)cc1OC -11.3%
Cc1cccc(C(=O)Nc2nnc(S(=O)(=O)N(C)Cc3ccco3)s2)c1 0.912%
CCCN1C[C@H](CSC)C[C@@H]2c3cccc4[nH]cc(c34)C[C@H]21 -8.01%
CCOC(=O)C(=O)CCCCCCl -3.13%
COCCNc1nc2c(S(=O)(=O)c3ccc(C)c(C)c3)nnn2c2ccc(Cl)cc12 2.57%
COc1cc(OC)cc(C(=O)Nc2ccc(S(=O)(=O)Nc3ncccn3)cc2)c1 -5.98%
O=C(NCc1ccc2c(c1)CCN2C(=O)c1ccc(Cl)cc1)c1cccc(F)c1 -9.51%
Cc1ccc(NC(=O)CCS(=O)(=O)c2cc3c4c(c2)CCN4C(=O)CC3)c(C)c1 -11.2%
O=C(Nc1nnc(S(=O)(=O)Nc2ccccc2)s1)c1ccccc1Cl -10.4%
CCc1noc(-c2ccc(N3CCCCC3C)c([N+](=O)[O-])c2)n1 (stereo not given) 44.8%
CC(=O)Nc1ccccc1 2.86%
CCC(Oc1ccccc1)C(=O)Nc1cc(-c2ccccc2OC)nn1-c1ccccc1 (stereo not given) -29.1%
Cc1ccc(-c2nc3c(c(SCC(=O)Nc4ccccc4Cl)n2)Cc2c(CO)cnc(C)c2O3)cc1 -14.9%
CCOC(=O)c1c(S(=O)(=O)NCC(=O)NCc2cccc(C)c2)c(C)n(C)c1C -1.6%
O=C(COc1ccccc1)Nc1nnc(S(=O)(=O)N2CCCC2)s1 -5.22%
O=C(OCC1CCCO1)c1ccc2c(c1)N(Cc1ccccc1Cl)C(=O)c1ccccc1S2(=O)=O (stereo not given) -2.82%
CCOc1ccc(-n2c(=O)c3c4c(sc3n(CC(=O)Nc3cccc(C(F)(F)F)c3)c2=O)CCCCC4)cc1 -14.7%
COc1ccccc1NC(=O)C(Cc1ccccc1)NS(=O)(=O)c1ccc2c(c1)c(=O)n(C)c(=O)n2C (stereo not given) -5.1%
Cc1cc(Nc2cccc(C(F)(F)F)c2)nc2ccc(NC(=O)c3ccc(=O)[nH]c3)cc12 -22.6%
O=C(NCc1ccc(F)cc1)c1c(O)nc2ccccn2c1=O 0.0293%
CCCCOc1cccc(NC(=O)CSc2nnc(C)s2)c1 -13.2%
COc1ccc(OC)c(NC(=O)CSc2nc3ccccc3nc2N2CCCCC2)c1 -30%
CCCC(=O)OCc1cnc(C)c2oc(=O)c(C(=O)Nc3ccccc3)cc12 -3.53%
COc1ccc(NC(=O)C2CCC(CNS(=O)(=O)c3ccc(Br)s3)CC2)cc1OC (stereo not given) -11.1%
CC(NC(=O)CCNS(=O)(=O)c1cccc2nsnc12)c1ccccc1 (stereo not given) -2.73%
Cc1ccc2c(=O)cc(CSCC(=O)Nc3nnc(C)s3)[nH]c2c1 8.1%
O=C(Nc1cccc(Cl)c1)c1cnc[nH]1 62.4%
COc1cccc(C(c2c(O)cc(C)n(Cc3ccco3)c2=O)N2CCN(c3ccccc3)CC2)c1 (stereo not given) -33.9%
O=C(CSc1nccn1Cc1ccc(Cl)cc1)Nc1ccc2c(c1)OCCO2 -15.5%
Cc1cc(C)n(C(C)CC(=O)NCc2ccc(N(C)C)cc2)n1 (stereo not given) -8.18%
COC(=O)c1cc2sccc2n1Cc1nc(-c2ccc(Cl)cc2)oc1C -11.2%
CCc1ccccc1NC(=O)c1ccc2c(c1)N(Cc1cc(C)ccc1C)C(=O)c1ccccc1S2(=O)=O -11.7%
C[N+]1(C)[C@@H]2C[C@@H](OC(=O)C(O)(c3cccs3)c3cccs3)C[C@H]1[C@@H]1O[C@@H]12 0.264%
COc1ccc(CNC(=O)C(C)n2ccc3cc(S(=O)(=O)N4CCCC4)ccc32)cc1OC (stereo not given) -20.7%
COc1ccccc1NC(=O)C1=C(C)Nc2nc(SCc3ccccc3C)nn2C1CC(C)C (stereo not given) -4.24%
COc1ccc(-n2ncc(C(=O)N3CCc4ccccc4C3)c2C2CCN(C(=O)OC(C)(C)C)CC2)cc1 7.28%
CCc1ccc2oc(C(=O)Nc3nonc3CC)c(C)c2c1 34.4%
CC(C(=O)O)c1ccc2c(c1)Cc1cccnc1O2 (stereo not given) 8.13%
Cc1oc2ncn(C)c(=O)c2c1C(=O)NCCCN1CCCC(C)C1 (stereo not given) 0%
C[C@H]1COc2c(C3(N)CC3)c(F)cc3c(=O)c(C(=O)O)cn1c23 2.24%
O=C(Nc1ccc(Br)cc1F)c1ncoc1-c1ccco1 11.5%
COC(=O)[C@@H]1CC2=CC(=O)CC[C@]2(C)[C@@]23O[C@@H]2C[C@@]2(C)[C@H](CC[C@@]24CCC(=O)O4)[C@@H]13 9.06%
O=C(COc1ccccc1)N(Cc1cccnc1)c1nc2ccc(F)cc2s1 22.7%
CCOc1cc(-c2nc(-c3ccc(Br)cc3)no2)cc(OCC)c1OCC 6.51%
COc1ccc(-c2cc(C(F)(F)F)n3nc(C(=O)NCC45CC6CC(CC(C6)C4)C5)cc3n2)cc1 -5.28%
O=C(CN1C(=O)COc2ccc(S(=O)(=O)N3CCOCC3)cc21)N1CCN(c2ccccc2)CC1 -0.285%
COCCCNC(=O)c1ccc2c(=O)n(Cc3ccc(OC)cc3)c(=O)[nH]c2c1 -2.59%
CSc1ccc2c(c1)C(N1CCN(C)CC1)Cc1ccccc1S2 (stereo not given) -18.9%
Cc1nc(-c2ccc(C)c(S(=O)(=O)N3CCC(C(=O)NCc4ccc(Cl)cc4)CC3)c2)no1 -30%
COc1ccc(CCNC(=O)C2CCCN(c3nc4c(C)cc(C)cc4s3)C2)cc1OC (stereo not given) -10.9%
Cc1ccc(S(=O)(=O)C(CNC(=O)c2ccccc2F)c2cccs2)cc1 (stereo not given) -22.4%
Cc1cccc(CSc2nc3c(c(=O)[nH]2)C(c2cccc(O)c2)CC(=O)N3)c1 (stereo not given) -22.4%
CCOC(=O)c1c(NC(=O)c2cc(C(C)C)on2)sc(C)c1C 7.89%
COc1ccc(C2=C(C)C(=O)N(Cc3ccc(C(=O)NCc4ccc(C)cc4)cc3)S2(=O)=O)cc1 -12.9%
CC(C)(C)C(=O)Oc1ccc(S(=O)(=O)Nc2ccccc2C(=O)NCC(=O)O)cc1

Potency, active:
Cc1ccc(NS(=O)(=O)c2ccc3c(c2)CCCN3C(=O)C2CCC2)cc1Cl 22.4 µM
